# From the supplement of paper PMC8728848
# The other results are listed elsewhere or left out.
# Columns and labels:
# Test in all cases: glycan array binding signal (z-score within array); higher = stronger binding
# Conditions in all cases: glycan notation: IUPAC condensed, linker removed
# [1] = molecular target: GlcNAc(a1-4)Gal(b1-4)GlcNAc(b1-3)Gal(b1-4)GlcNAc(b1-3)Gal(b1-4)GlcNAc
# In short: (§1)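 The binding signal is a Z-score computed within each array. Data were drawn from 3228 arrays in the Consortium for Functional Glycomics database, restricted to those with a known protein sequence. Scores were averaged over arrays of the same protein sequence at different concentrations or buffers, and over linkers, and negative values can be taken as non-binding.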
# [2] = molecular target: GlcNAc(a1-4)Gal(b1-4)GlcNAc(b1-3)Gal(b1-4)[Fuc(a1-3)]GlcNAc(b1-3)Gal(b1-4)[Fuc(a1-3)]GlcNAc
# In short: as §1
# [3] = molecular target: GlcNAc(a1-6)Gal(b1-4)GlcNAc
# In short: as §1
# [4] = molecular target: GlcNAc(b1-2)Gal(b1-3)GalNAc
# In short: as §1
# [5] = molecular target: GlcNAc(b1-2)Man(a1-3)[GlcNAc(b1-2)Man(a1-6)]Man(b1-4)GlcNAc(b1-4)GlcNAc
# In short: as §1
# [6] = molecular target: GlcNAc(b1-2)Man(a1-3)[GlcNAc(b1-2)Man(a1-6)]Man(b1-4)GlcNAc(b1-4)[Fuc(a1-6)]GlcNAc
# In short: as §1
# GlcNAc(b1-3)Gal = molecular target: GlcNAc(b1-3)Gal
# In short: as §1
# [7] = molecular target: GlcNAc(b1-3)Gal(b1-3)GalNAc
# In short: as §1
# GlcNAc(b1-3)Gal(b1-4)Glc = molecular target: GlcNAc(b1-3)Gal(b1-4)Glc
# In short: as §1
# [8] = molecular target: GlcNAc(b1-3)Gal(b1-4)GlcNAc
# In short: as §1
# [9] = molecular target: GlcNAc(b1-3)Gal(b1-4)GlcNAc(b1-3)Gal(b1-4)GlcNAc
# In short: as §1
# GlcNAc(b1-3)GalNAc = molecular target: GlcNAc(b1-3)GalNAc
# In short: as §1
# GlcNAc(b1-3)Man = molecular target: GlcNAc(b1-3)Man
# In short: as §1
# [10] = molecular target: GlcNAc(b1-3)[GlcNAc(b1-4)][GlcNAc(b1-6)]GlcNAc
# In short: as §1
# [11] = molecular target: GlcNAc(b1-3)[GlcNAc(b1-6)]Gal(b1-4)GlcNAc
# In short: as §1
# [12] = molecular target: GlcNAc(b1-3)[GlcNAc(b1-6)]GalNAc
# In short: as §1
# [13] = molecular target: GlcNAc(b1-4)Gal(b1-4)GlcNAc
# In short: as §1
# GlcNAc(b1-4)GlcNAc = molecular target: GlcNAc(b1-4)GlcNAc
# In short: as §1
# [14] = molecular target: GlcNAc(b1-4)GlcNAc(b1-4)GlcNAc
# In short: as §1
# [15] = molecular target: GlcNAc(b1-4)GlcNAc(b1-4)GlcNAc(b1-4)GlcNAc(b1-4)GlcNAc
# In short: as §1
# [16] = molecular target: GlcNAc(b1-4)GlcNAc(b1-4)GlcNAc(b1-4)GlcNAc(b1-4)GlcNAc(b1-4)GlcNAc
# In short: as §1
# [17] = molecular target: GlcNAc(b1-4)[GlcNAc(b1-6)]GalNAc
# In short: as §1
# [18] = molecular target: GlcNAc(b1-6)Gal(b1-4)GlcNAc
# In short: as §1
# GlcNAc(b1-6)GalNAc = molecular target: GlcNAc(b1-6)GalNAc
# In short: as §1
# GlcNAc3Prop(b1-4)GlcNAc = molecular target: GlcNAc3Prop(b1-4)GlcNAc
# In short: as §1
# [19] = molecular target: GlcNAc6S(b1-3)Gal(b1-4)GlcNAc
# In short: as §1
# Kdn(a2-3)Gal(b1-3)GalNAc = molecular target: Kdn(a2-3)Gal(b1-3)GalNAc
# In short: as §1
# Kdn(a2-3)Gal(b1-3)GlcNAc = molecular target: Kdn(a2-3)Gal(b1-3)GlcNAc
# In short: as §1
# Kdn(a2-3)Gal(b1-4)Glc = molecular target: Kdn(a2-3)Gal(b1-4)Glc
# In short: as §1
# Kdn(a2-3)Gal(b1-4)GlcNAc = molecular target: Kdn(a2-3)Gal(b1-4)GlcNAc
# In short: as §1
# [20] = molecular target: Kdn(a2-3)Gal(b1-4)[Fuc(a1-3)]GlcNAc
# In short: as §1
# Kdn(a2-6)Gal(b1-4)GlcNAc = molecular target: Kdn(a2-6)Gal(b1-4)GlcNAc
# In short: as §1
# [21] = molecular target: Man(a1-2)Man(a1-2)Man(a1-3)Man
# In short: as §1
# [22] = molecular target: Man(a1-2)Man(a1-2)Man(a1-6)[Man(a1-3)]Man
# In short: as §1
# Man(a1-2)Man(a1-3)Man = molecular target: Man(a1-2)Man(a1-3)Man
# In short: as §1
# [23] = molecular target: Man(a1-2)Man(a1-3)[Man(a1-2)Man(a1-6)]Man
# In short: as §1
# [24] = molecular target: Man(a1-2)Man(a1-3)[Man(a1-2)Man(a1-6)]Man(a1-6)[Man(a1-2)Man(a1-2)Man(a1-3)]Man
# In short: as §1
# [25] = molecular target: Man(a1-2)Man(a1-3)[Man(a1-2)Man(a1-6)]Man(a1-6)[Man(a1-2)Man(a1-2)Man(a1-3)]Man(b1-4)GlcNAc(b1-4)GlcNAc
# In short: as §1
# [26] = molecular target: Man(a1-2)Man(a1-3)[Man(a1-6)]Man(a1-6)[Man(a1-2)Man(a1-3)]Man(b1-4)GlcNAc(b1-4)GlcNAc
# In short: as §1
# [27] = molecular target: Man(a1-2)Man(a1-6)[Man(a1-3)]Man(a1-6)[Man(a1-2)Man(a1-2)Man(a1-3)]Man
# In short: as §1
# [28] = molecular target: Man(a1-2)Man(a1-6)[Man(a1-3)]Man(a1-6)[Man(a1-2)Man(a1-2)Man(a1-3)]Man(b1-4)GlcNAc(b1-4)GlcNAc
# In short: as §1
# Man(a1-3)[Man(a1-6)]Man = molecular target: Man(a1-3)[Man(a1-6)]Man
# In short: as §1
# [29] = molecular target: Man(a1-3)[Man(a1-6)]Man(a1-6)[Man(a1-2)Man(a1-3)]Man(b1-4)GlcNAc(b1-4)GlcNAc
# In short: as §1
# [30] = molecular target: Man(a1-3)[Man(a1-6)]Man(a1-6)[Man(a1-3)]Man
# In short: as §1
binder,measurement,setting,value
"StdA (Salmonella typhimurium), Q8Z3Z0 (protein) MAAAGMMYGASVFAADTTPTAGPFGSGKILFTGTITNSPCDIAPGDDAITVPFGQISYRKLNTANATTDSKPFTIHLQNCAFDPNETTIAGSAGKMSKVTVSFSGTADTSGKAYVSTGSAQHVGVQLLKGDNTSLITPNTPMPDGDAQQLQAGNNELNFFARLIALTDAATPGDVNASVTYTLKYL",glycan array binding signal (z-score),[1],0.545
same,glycan array binding signal (z-score),[2],0.242
same,glycan array binding signal (z-score),[3],0.055
same,glycan array binding signal (z-score),[4],-0.638
same,glycan array binding signal (z-score),[5],0.112
same,glycan array binding signal (z-score),[6],0.848
same,glycan array binding signal (z-score),GlcNAc(b1-3)Gal,-1.51
same,glycan array binding signal (z-score),[7],2.07
same,glycan array binding signal (z-score),GlcNAc(b1-3)Gal(b1-4)Glc,0.153
same,glycan array binding signal (z-score),[8],-0.077
same,glycan array binding signal (z-score),[9],-0.414
same,glycan array binding signal (z-score),GlcNAc(b1-3)GalNAc,-0.854
same,glycan array binding signal (z-score),GlcNAc(b1-3)Man,0.206
same,glycan array binding signal (z-score),[10],-0.591
same,glycan array binding signal (z-score),[11],-0.265
same,glycan array binding signal (z-score),[12],0.036
same,glycan array binding signal (z-score),[13],-0.524
same,glycan array binding signal (z-score),GlcNAc(b1-4)GlcNAc,0.148
same,glycan array binding signal (z-score),[14],0.166
same,glycan array binding signal (z-score),[15],-0.249
same,glycan array binding signal (z-score),[16],-0.944
same,glycan array binding signal (z-score),[17],-0.958
same,glycan array binding signal (z-score),[18],0.557
same,glycan array binding signal (z-score),GlcNAc(b1-6)GalNAc,-0.631
same,glycan array binding signal (z-score),GlcNAc3Prop(b1-4)GlcNAc,-0.424
same,glycan array binding signal (z-score),[19],1.03
same,glycan array binding signal (z-score),Kdn(a2-3)Gal(b1-3)GalNAc,0.344
same,glycan array binding signal (z-score),Kdn(a2-3)Gal(b1-3)GlcNAc,-0.107
same,glycan array binding signal (z-score),Kdn(a2-3)Gal(b1-4)Glc,0.211
same,glycan array binding signal (z-score),Kdn(a2-3)Gal(b1-4)GlcNAc,1.56
same,glycan array binding signal (z-score),[20],0.403
same,glycan array binding signal (z-score),Kdn(a2-6)Gal(b1-4)GlcNAc,-0.547
same,glycan array binding signal (z-score),[21],-0.737
same,glycan array binding signal (z-score),[22],-0.088
same,glycan array binding signal (z-score),Man(a1-2)Man(a1-3)Man,-0.691
same,glycan array binding signal (z-score),[23],-0.749
same,glycan array binding signal (z-score),[24],-0.236
same,glycan array binding signal (z-score),[25],-0.501
same,glycan array binding signal (z-score),[26],1.34
same,glycan array binding signal (z-score),[27],1.21
same,glycan array binding signal (z-score),[28],-0.273
same,glycan array binding signal (z-score),Man(a1-3)[Man(a1-6)]Man,-0.521
same,glycan array binding signal (z-score),[29],-0.109
same,glycan array binding signal (z-score),[30],-0.44
